The results in this text go back to PMC2924460 (Arteriosclerosis, thrombosis, and vascular biology, 2010).

The data set concerns the molecule itself. The data set can be described thus: FRET or BRET. On the technique in general: In BRET a luciferase serves as donor, and the signal depends on an acceptor being close.

B1: prostacyclin receptor variant IP^R212C, fused to renilla luciferase (IP^R212CrLuc) or to yellow fluorescent protein (IP^R212CYFP) (receptor)
chain: not shown
B1 yielded a BRET50 of 1.13 YFP fold over basal.
